# Laboratory results reported in PubChem BioAssay AID652104 (National Center for Advancing Translational Sciences (NCATS), 2013).
# In all, about 410,000 compounds went through this assay and about 7,200 (1.8%) were called active. Inconclusive results, whose numbers are uncertain, are shown with a selection of clear calls. Calls come from the whole dose curve; as a rule, active = well fitted activation curve with a large enough effect; inconclusive = small, poorly fitted or top-dose-only effect, or another doubt; inactive = no such curve, though single readings can be large or run the other way. No potency is given beside an inconclusive call; the fits are too rough.
# Assay: qHTS of TDP-43 Inhibitors; note: nearly all actives have a fitted effect of over 50% in size; for growth rescue (activation): % of control where 0% means no effect
# Settings: TDP-43 expressing yeast growth rescue, BacTiter-Glo, 24 h; growth rescue (activation): at 46.1 µM (top of the series) unless noted
# Summary of the method: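 Yeast expressing TDP-43 (pregrown in raffinose, seeded at OD600=0.02 in galactose medium) exposed to compounds 24 hr at 30 deg C. Growth read by BacTiter-Glo luminescence; rescue of toxicity appears as increased signal.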
# Potency is the fitted concentration of half-maximal effect; tags give direction and shape of the fitted curve.
Compound,Potency,growth rescue (activation)
OC[C@@H]1CN(Cc2ccc(Cl)cc2)C[C@H](n2cnc3c(N4CCN(c5ccccc5)CC4)ncnc32)O1,active: 31.6 µM,–
CCOc1ccc(C(=O)c2cn(Cc3ccccc3)c3c(F)cc(F)cc3c2=O)cc1,–,inactive: 1.69%
Cc1c(NC(=O)c2cc3c(s2)-c2ccccc2OC3)cccc1[N+](=O)[O-],–,inactive: 17.6%
CC(C)CCNC(=O)COC(=O)/C=C/c1ccc2ccccc2n1,"inconclusive [activator, partial curve]",–
CCC(c1nnnn1-c1ccc2c(c1)OCCO2)N1CCN(c2cccc(C)c2C)CC1 (stereo unspecified),"inconclusive [activator, partial curve]",–
O=C(COC(=O)/C=C/c1ccco1)NCc1ccco1,–,inactive: 2.54%
C=CCn1c(=O)n2ncnc2c2c3c(sc21)CCCC3,"inconclusive [activator, single point]",–
COc1ccc(C2c3[nH]c4ccccc4c3C[C@H]3C(=O)N(c4ccccc4C(=O)N4CCC[C@@H]4C(=O)O)C(=O)N23)cc1 (stereo partly specified),"inconclusive [activator, full curve, poor fit]",–
COc1ccccc1N1C(=O)CC(Sc2n[nH]c(-c3cccc(C)c3)n2)C1=O (stereo unspecified),"inconclusive [activator, single point]",–
CC1(C)CC(=O)C2=C(C1)NC1=C(C(=O)c3ccccc31)C2c1ccc(O)cc1 (stereo unspecified),"inconclusive [activator, partial curve, poor fit]",–
Cc1ccc(CNC(=S)Nc2cc(C)ccc2OC(F)F)cc1,"inconclusive [activator, single point]",–
COC(=O)c1ccc(NC(=O)c2cccc(Cl)c2)o1,"inconclusive [activator, partial curve]",–
COc1ccc(-c2csc(C(C)(O)c3ccc(F)c(F)c3)n2)cc1OC (stereo unspecified),active: 22.4 µM,–
Cc1c(O)ccc(/C=N/Nc2nc(-c3cccnc3)nc3ccccc23)c1O,"inconclusive [activator, full curve]",–
O=C(O)c1ccc(OC2CSC2)cc1,"inconclusive [activator, partial curve]",–
C=CCC1NCCc2c(Br)cccc21 (stereo unspecified),–,inactive: -20.6%
CCCCS(=O)(=O)c1oc(-c2ccc(F)cc2)nc1S(=O)(=O)c1ccccc1,active: 14.1 µM,–
O=c1[nH]c(CSc2cccc[n+]2[O-])nc2ccccc12,"inconclusive [activator, single point]",–
CCc1nc2ccc(C(=O)NCCOc3ccc(OC)cc3)cn2c1N(CCC(C)C)CCN(C)C,–,inactive: -20.2%
O=C(Nc1cc(Cl)ccc1-n1cncn1)c1ccc([N+](=O)[O-])o1,active: 14.1 µM,–
N#CC(c1ccccc1)C(CC(=NO)c1ccccc1)c1ccccc1 (stereo unspecified),active: 17.8 µM,–
Cc1cccc(OCC(=O)NCC(=O)n2nc(C)cc2C)c1,–,inactive: 15.8%
CCOc1ncccc1C(=O)OCC(=O)Nc1ncc(C(F)(F)F)cc1Cl,"inconclusive [activator, partial curve]",–

Compound,Potency,growth rescue (activation)
CCOC(=O)N1CCN(c2c(NCCCN(C)c3ccccc3)c(=O)c2=O)CC1,"inconclusive [activator, partial curve]",–
COc1ccc(C2CC(=O)Oc3cc(C)c(Cl)c(C)c32)cc1 (stereo unspecified),"inconclusive [activator, single point]",–
O=C(O)CCSc1nc2ccccc2s1,"inconclusive [activator, single point]",–
O=C(COC(=O)c1ccc(Oc2ccccc2)cc1)Nc1nnc(-c2ccccc2)o1,active: 22.4 µM,–
Cc1ccc(C)c(S(=O)(=O)NCCc2csc(-c3ccc(Cl)cc3)n2)c1,active: 22.4 µM,–
COc1ccc(Nc2nc(C)c(C(C)=O)s2)cc1,"inconclusive [activator, single point]",–
CCCC(=O)N1CCC1(C)C(=O)Nc1ccc2nc(C)ccc2c1 (stereo unspecified),"inconclusive [activator, partial curve]",–
CC(=O)c1ccc(N2CCN(C(=O)c3cc4ccc5cccnc5c4[nH]3)CC2)cc1,"inconclusive [activator, partial curve]",–
COc1ccc(C(=O)Nc2ccccc2-c2nc(-c3ccc(OC)cc3)no2)cc1,–,inactive: 0% [at 9.22 µM]
O=C(c1cnc(N2CCCCC2)c2ccccc12)N1CCN(c2ccc(Cl)cc2)CC1,"inconclusive [activator, single point]",–
O=C(O)/C=C\C(=O)Nc1ccc(Oc2ccccc2)cc1,"inconclusive [activator, partial curve]",–
O=C(CCn1cnc2onc(-c3ccc(F)cc3)c2c1=O)N1CCN(c2ccccc2)CC1,"inconclusive [activator, single point]",–
COc1cccc(OCc2nc3ccccc3n2C)c1,"inconclusive [activator, full curve, poor fit]",–
O=C(NCc1noc2ccccc12)N1CCN(c2ccccc2F)CC1,"inconclusive [activator, partial curve]",–
O=C(CC1CC2CCC1C2)N1CCN(S(=O)(=O)c2ccccc2C(F)(F)F)CC1 (stereo unspecified),active: 22.4 µM,–
CCn1ncc(Br)c1C(=O)Nc1ccccc1C(F)(F)F,"inconclusive [activator, single point]",–
Cc1onc(-c2ccccc2)c1-c1nnc(CN2CCN(S(=O)(=O)c3ccccc3)CC2)o1,"inconclusive [activator, single point]",–
Cc1cc(C)c(C)c(S(=O)(=O)N2CCC(C(=O)NC3=NCCS3)CC2)c1C,–,inactive: -5.89%
NC(=S)N/N=C/c1ccc(-c2cc(Cl)cc(Cl)c2)o1,"inconclusive [activator, single point]",–
O=C(Nc1cccc(-c2nc3cc(Cl)ccc3o2)c1)c1ccc(F)cc1,–,inactive: -3.43%
Fc1ccccc1SCc1nnc(-c2ccccc2Br)o1,active: 22.4 µM,–
COc1ccc2c(c1)-c1nc(NC(=O)c3cccs3)sc1CC2,active: 17.8 µM,–
CN(C)C(=O)c1ccccc1Sc1ccc(Cl)cc1Cl,"inconclusive [activator, single point]",–
